{"source": "the supplement of paper PMC4166925", "note": "± gives the standard deviation of the averaged measurements. Over roughly 33,000 sequences, “E-score (dimensionless, -0.5 to 0.5)” has its median near -0.049; the highest 2% begin near 0.37. The list shows a part of the results.", "data": [{"test_system": "T1, PmTbr T-box DNA-binding domain (GST fusion)", "T1 sequence": "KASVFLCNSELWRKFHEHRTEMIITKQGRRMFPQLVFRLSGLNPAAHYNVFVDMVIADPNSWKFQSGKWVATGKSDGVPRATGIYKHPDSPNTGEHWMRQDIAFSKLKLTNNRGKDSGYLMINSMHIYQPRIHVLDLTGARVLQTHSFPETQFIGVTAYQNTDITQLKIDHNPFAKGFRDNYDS", "assay": "PBM E-score of 8-mer (E-score (dimensionless, -0.5 to 0.5)); Tbr is Tbrain of the sea star Patiria miniata (Pm) or the sea urchin Strongylocentrotus purpuratus (Sp); higher = stronger binding preference; most listed sequences are background and not binding sites", "settings": "the construct has about 5 more residues each side", "procedure,_shortened": "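Primer extension turned Universal Agilent oligonucleotide arrays double-stranded. They were incubated with 200 nM protein in PBS (pH 7.5); the protein was a GST-fused Tbr T-box DNA-binding domain expressed in BL21 E. coli at 20 °C and purified on glutathione. Every ungapped 8-mer was scored from the scanned, quantified probe intensities, and the Universal PBM Analysis Suite gave each an enrichment E-score averaged over duplicate arrays.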", "values": [{"sequence": "GGTCTGGA", "PBM E-score of 8-mer": "-0.223 ± 0.084"}, {"sequence": "ACGAGCTA", "PBM E-score of 8-mer": "-0.101 ± 0.0022"}, {"sequence": "GAAATCCC", "PBM E-score of 8-mer": "-0.103 ± 0.044"}, {"sequence": "CCTAAAAC", "PBM E-score of 8-mer": "-0.00751 ± 0.035"}, {"sequence": "CTTCCACA", "PBM E-score of 8-mer": "0.151 ± 0.069"}, {"sequence": "ATCGCCAC", "PBM E-score of 8-mer": "0.226 ± 0.015"}, {"sequence": "AGGATTAC", "PBM E-score of 8-mer": "-0.191 ± 0.055"}, {"sequence": "TACTCATA", "PBM E-score of 8-mer": "-0.0296 ± 0.03"}, {"sequence": "AACGAAAC", "PBM E-score of 8-mer": "0.0697 ± 0.048"}, {"sequence": "GGCGTCAC", "PBM E-score of 8-mer": "0.355 ± 0.026"}, {"sequence": "GGGCCCTA", "PBM E-score of 8-mer": "-0.334 ± 0.01"}, {"sequence": "AAACTTTG", "PBM E-score of 8-mer": "-0.0931 ± 0.07"}, {"sequence": "AACATCTC", "PBM E-score of 8-mer": "0.198 ± 0.0056"}, {"sequence": "GTAACCTA", "PBM E-score of 8-mer": "-0.165 ± 0.026"}, {"sequence": "GCTCCAAC", "PBM E-score of 8-mer": "0.0343 ± 0.0028"}, {"sequence": "ACGATCAG", "PBM E-score of 8-mer": "-0.0946 ± 0.0096"}, {"sequence": "TGAAAGCA", "PBM E-score of 8-mer": "0.0923 ± 0.034"}, {"sequence": "CTGAGCCA", "PBM E-score of 8-mer": "0.00229 ± 0.066"}, {"sequence": "CCCAGAAG", "PBM E-score of 8-mer": "0.0111 ± 0.011"}, {"sequence": "CAACCAGA", "PBM E-score of 8-mer": "-0.189 ± 0.068"}, {"sequence": "AGCCTTGG", "PBM E-score of 8-mer": "-0.1206 ± 0.00055"}, {"sequence": "AGAATACT", "PBM E-score of 8-mer": "-0.3308 ± 0.0016"}, {"sequence": "AACTAGTA", "PBM E-score of 8-mer": "-0.177 ± 0.043"}, {"sequence": "AAGTGTCC", "PBM E-score of 8-mer": "0.281 ± 0.011"}, {"sequence": "AACGAGTT", "PBM E-score of 8-mer": "0.0308 ± 0.073"}, {"sequence": "CAACTAAA", "PBM E-score of 8-mer": "0.0404 ± 0.062"}, {"sequence": "GCACTCTA", "PBM E-score of 8-mer": "0.0446 ± 0.058"}, {"sequence": "ATGTATGA", "PBM E-score of 8-mer": "-0.231 ± 0.075"}, {"sequence": "CCCATTGA", "PBM E-score of 8-mer": "-0.104 ± 0.044"}, {"sequence": "GCCATCAC", "PBM E-score of 8-mer": "0.163 ± 0.011"}, {"sequence": "CGAGGCTA", "PBM E-score of 8-mer": "-0.0749 ± 0.035"}, {"sequence": "CAAGTAAC", "PBM E-score of 8-mer": "0.112 ± 0.017"}, {"sequence": "AGTCAAAC", "PBM E-score of 8-mer": "-0.0247 ± 0.068"}, {"sequence": "GCAAACAA", "PBM E-score of 8-mer": "-0.00852 ± 0.045"}, {"sequence": "GGCGTCCA", "PBM E-score of 8-mer": "-0.036 ± 0.015"}, {"sequence": "CAACGTTG", "PBM E-score of 8-mer": "0.229 ± 0.0073"}, {"sequence": "CTCGTTAA", "PBM E-score of 8-mer": "0.107 ± 0.035"}, {"sequence": "AATTCGGA", "PBM E-score of 8-mer": "-0.214 ± 0.057"}, {"sequence": "ACGTTTAA", "PBM E-score of 8-mer": "-0.206 ± 0.055"}, {"sequence": "ATCTTTGC", "PBM E-score of 8-mer": "0.035 ± 0.042"}, {"sequence": "ACATAGGG", "PBM E-score of 8-mer": "-0.102 ± 0.032"}, {"sequence": "GCTTTACA", "PBM E-score of 8-mer": "-0.0756 ± 0.045"}, {"sequence": "GATAAACA", "PBM E-score of 8-mer": "0.0427 ± 0.07"}, {"sequence": "CGGATCAG", "PBM E-score of 8-mer": "-0.176 ± 0.069"}, {"sequence": "ACGGGTAT", "PBM E-score of 8-mer": "0.0101 ± 0.015"}, {"sequence": "CAACATCG", "PBM E-score of 8-mer": "-0.0443 ± 0.013"}, {"sequence": "GGCAACTA", "PBM E-score of 8-mer": "0.00553 ± 0.027"}, {"sequence": "CGTCCTAC", "PBM E-score of 8-mer": "-0.299 ± 0.082"}, {"sequence": "TCCTTACA", "PBM E-score of 8-mer": "-0.00174 ± 0.052"}, {"sequence": "ATAGTAAT", "PBM E-score of 8-mer": "-0.137 ± 0.12"}, {"sequence": "AGACCAGG", "PBM E-score of 8-mer": "-0.0498 ± 0.065"}, {"sequence": "AGTTACAA", "PBM E-score of 8-mer": "0.0112 ± 0.023"}, {"sequence": "ATCTGGAA", "PBM E-score of 8-mer": "-0.123 ± 0.065"}, {"sequence": "CCGTACAC", "PBM E-score of 8-mer": "0.0864 ± 0.039"}, {"sequence": "CAAGGGGG", "PBM E-score of 8-mer": "-0.175 ± 0.099"}, {"sequence": "AAGTGTGA", "PBM E-score of 8-mer": "0.48967 ± 0.00029"}, {"sequence": "GCCACGCA", "PBM E-score of 8-mer": "-0.115 ± 0.077"}, {"sequence": "ATGACGTG", "PBM E-score of 8-mer": "0.142 ± 0.023"}, {"sequence": "ACGAAGCC", "PBM E-score of 8-mer": "-0.0268 ± 0.027"}, {"sequence": "GACCACGA", "PBM E-score of 8-mer": "-0.112 ± 0.01"}, {"sequence": "CACGCGTA", "PBM E-score of 8-mer": "0.197 ± 0.036"}, {"sequence": "AATGCTGC", "PBM E-score of 8-mer": "-0.103 ± 0.025"}, {"sequence": "CTGTACCA", "PBM E-score of 8-mer": "0.0194 ± 0.043"}, {"sequence": "ACACTAAG", "PBM E-score of 8-mer": "0.197 ± 0.046"}, {"sequence": "TCTATGCA", "PBM E-score of 8-mer": "-0.169 ± 0.015"}, {"sequence": "GGAAAAAC", "PBM E-score of 8-mer": "-0.0984 ± 0.077"}, {"sequence": "GTGCTAGA", "PBM E-score of 8-mer": "0.382 ± 0.0098"}, {"sequence": "GCAGTGAC", "PBM E-score of 8-mer": "0.0969 ± 0.043"}, {"sequence": "GGCATTCA", "PBM E-score of 8-mer": "-0.0793 ± 0.061"}, {"sequence": "AACTAGAT", "PBM E-score of 8-mer": "-0.258 ± 0.0078"}, {"sequence": "GACGGCGC", "PBM E-score of 8-mer": "0.193 ± 0.059"}, {"sequence": "AGCGCAAA", "PBM E-score of 8-mer": "0.201 ± 0.039"}, {"sequence": "GAACATCC", "PBM E-score of 8-mer": "-0.122 ± 0.02"}, {"sequence": "CCCATACC", "PBM E-score of 8-mer": "-0.0598 ± 0.027"}, {"sequence": "CTGTCTCC", "PBM E-score of 8-mer": "-0.101 ± 0.14"}, {"sequence": "ACGCTCCT", "PBM E-score of 8-mer": "0.0387 ± 0.003"}, {"sequence": "TACAGGTA", "PBM E-score of 8-mer": "-0.0543 ± 0.0011"}, {"sequence": "AAATCACT", "PBM E-score of 8-mer": "-0.0226 ± 0.039"}, {"sequence": "AGCGCATC", "PBM E-score of 8-mer": "-0.0205 ± 0.0078"}, {"sequence": "TGCTGAAA", "PBM E-score of 8-mer": "0.0466 ± 0.016"}, {"sequence": "ATGCCATG", "PBM E-score of 8-mer": "-0.0526 ± 0.026"}, {"sequence": "CATCGCGG", "PBM E-score of 8-mer": "0.196 ± 0.032"}, {"sequence": "AGGAATAT", "PBM E-score of 8-mer": "-0.142 ± 0.023"}, {"sequence": "CGAGACGA", "PBM E-score of 8-mer": "0.0752 ± 0.029"}, {"sequence": "GGCGCCCC", "PBM E-score of 8-mer": "-0.0463 ± 0.019"}, {"sequence": "ATTAGGCA", "PBM E-score of 8-mer": "0.0641 ± 0.032"}]}]}
